Test results as given in the supplement of paper PMC8728848.
The other results are listed elsewhere or left out.

Tests used:
Experiment in all cases: glycan array binding signal (z-score within array); higher = stronger binding
Settings in all cases: glycan notation: IUPAC condensed, linker removed
[1] = target: Neu5Ac(a2-3)Gal(b1-4)Glc
Method in brief: (§1)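 Columns mapping to the same glycan were averaged after glycan names were converted to IUPAC-condensed notation. The data come from 3228 arrays in the Consortium for Functional Glycomics database, limited to those with an available protein sequence. Binding is reported as a within-array Z-score averaged across arrays of one protein sequence and across linkers.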

[2] = target: Neu5Ac(a2-3)Gal(b1-4)GlcNAc
Method in brief: as §1

[3] = target: Neu5Ac(a2-3)Gal(b1-4)GlcNAc(b1-2)Man
Method in brief: as §1

[4] = target: Neu5Ac(a2-3)Gal(b1-4)GlcNAc(b1-2)Man(a1-3)[GlcNAc(b1-4)][Neu5Ac(a2-3)Gal(b1-4)GlcNAc(b1-2)Man(a1-6)]Man(b1-4)GlcNAc(b1-4)GlcNAc
Method in brief: as §1

[5] = target: Neu5Ac(a2-3)Gal(b1-4)GlcNAc(b1-2)Man(a1-3)[Neu5Ac(a2-3)Gal(b1-4)GlcNAc(b1-2)Man(a1-6)]Man(b1-4)GlcNAc(b1-4)GlcNAc
Method in brief: as §1

[6] = target: Neu5Ac(a2-3)Gal(b1-4)GlcNAc(b1-2)Man(a1-3)[Neu5Ac(a2-3)Gal(b1-4)GlcNAc(b1-2)Man(a1-6)]Man(b1-4)GlcNAc(b1-4)[Fuc(a1-6)]GlcNAc
Method in brief: as §1

[7] = target: Neu5Ac(a2-3)Gal(b1-4)GlcNAc(b1-2)Man(a1-3)[Neu5Ac(a2-6)Gal(b1-4)GlcNAc(b1-2)Man(a1-6)]Man(b1-4)GlcNAc(b1-4)GlcNAc
Method in brief: as §1

[8] = target: Neu5Ac(a2-3)Gal(b1-4)GlcNAc(b1-2)[Neu5Ac(a2-3)Gal(b1-4)GlcNAc(b1-4)]Man(a1-3)[GlcNAc(b1-4)][Neu5Ac(a2-3)Gal(b1-4)GlcNAc(b1-2)[Neu5Ac(a2-3)Gal(b1-4)GlcNAc(b1-6)]Man(a1-6)]Man(b1-4)GlcNAc(b1-4)GlcNAc
Method in brief: as §1

[9] = target: Neu5Ac(a2-3)Gal(b1-4)GlcNAc(b1-2)[Neu5Ac(a2-3)Gal(b1-4)GlcNAc(b1-4)]Man(a1-3)[GlcNAc(b1-4)][Neu5Ac(a2-3)Gal(b1-4)GlcNAc(b1-4)Man(a1-6)]Man(b1-4)GlcNAc(b1-4)GlcNAc
Method in brief: as §1

[10] = target: Neu5Ac(a2-3)Gal(b1-4)GlcNAc(b1-2)[Neu5Ac(a2-3)Gal(b1-4)GlcNAc(b1-6)]Man(a1-6)[Neu5Ac(a2-3)Gal(b1-4)GlcNAc(b1-2)Man(a1-3)]Man(b1-4)GlcNAc(b1-4)GlcNAc
Method in brief: as §1

[11] = target: Neu5Ac(a2-3)Gal(b1-4)GlcNAc(b1-2)[Neu5Ac(a2-3)Gal(b1-4)GlcNAc(b1-6)]Man(a1-6)[Neu5Ac(a2-3)Gal(b1-4)GlcNAc(b1-2)Man(a1-3)][GlcNAc(b1-4)]Man(b1-4)GlcNAc(b1-4)GlcNAc
Method in brief: as §1

[12] = target: Neu5Ac(a2-3)Gal(b1-4)GlcNAc(b1-3)Gal
Method in brief: as §1

[13] = target: Neu5Ac(a2-3)Gal(b1-4)GlcNAc(b1-3)Gal(b1-3)GlcNAc
Method in brief: as §1

[14] = target: Neu5Ac(a2-3)Gal(b1-4)GlcNAc(b1-3)Gal(b1-4)GlcNAc
Method in brief: as §1

[15] = target: Neu5Ac(a2-3)Gal(b1-4)GlcNAc(b1-3)Gal(b1-4)GlcNAc(b1-2)Man(a1-3)[Neu5Ac(a2-3)Gal(b1-4)GlcNAc(b1-3)Gal(b1-4)GlcNAc(b1-2)Man(a1-6)]Man(b1-4)GlcNAc(b1-4)GlcNAc
Method in brief: as §1

[16] = target: Neu5Ac(a2-3)Gal(b1-4)GlcNAc(b1-3)Gal(b1-4)GlcNAc(b1-3)Gal(b1-4)GlcNAc
Method in brief: as §1

[17] = target: Neu5Ac(a2-3)Gal(b1-4)GlcNAc(b1-3)Gal(b1-4)GlcNAc(b1-3)Gal(b1-4)GlcNAc(b1-2)Man(a1-3)[Neu5Ac(a2-3)Gal(b1-4)GlcNAc(b1-3)Gal(b1-4)GlcNAc(b1-3)Gal(b1-4)GlcNAc(b1-2)Man(a1-6)]GalNAc
Method in brief: as §1

[18] = target: Neu5Ac(a2-3)Gal(b1-4)GlcNAc(b1-3)Gal(b1-4)GlcNAc(b1-3)GalNAc
Method in brief: as §1

[19] = target: Neu5Ac(a2-3)Gal(b1-4)GlcNAc(b1-3)Gal(b1-4)GlcNAc(b1-3)[Neu5Ac(a2-3)Gal(b1-4)GlcNAc(b1-3)Gal(b1-4)GlcNAc(b1-6)]GalNAc
Method in brief: as §1

[20] = target: Neu5Ac(a2-3)Gal(b1-4)GlcNAc(b1-3)Gal(b1-4)GlcNAc(b1-6)[Gal(b1-3)]GalNAc
Method in brief: as §1

[21] = target: Neu5Ac(a2-3)Gal(b1-4)GlcNAc(b1-3)Gal(b1-4)[Fuc(a1-3)]GlcNAc
Method in brief: as §1

[22] = target: Neu5Ac(a2-3)Gal(b1-4)GlcNAc(b1-3)GalNAc
Method in brief: as §1

[23] = target: Neu5Ac(a2-3)Gal(b1-4)GlcNAc(b1-3)[Neu5Ac(a2-3)Gal(b1-4)GlcNAc(b1-6)]GalNAc
Method in brief: as §1

[24] = target: Neu5Ac(a2-3)Gal(b1-4)GlcNAc(b1-6)GalNAc
Method in brief: as §1

[25] = target: Neu5Ac(a2-3)Gal(b1-4)GlcNAc(b1-6)[Gal(b1-3)]GalNAc
Method in brief: as §1

[26] = target: Neu5Ac(a2-3)Gal(b1-4)GlcNAc(b1-6)[Neu5Ac(a2-3)Gal(b1-3)]GalNAc
Method in brief: as §1

[27] = target: Neu5Ac(a2-3)Gal(b1-4)GlcNAc6S
Method in brief: as §1

[28] = target: Neu5Ac(a2-3)Gal(b1-4)[Fuc(a1-3)]GlcNAc
Method in brief: as §1

[29] = target: Neu5Ac(a2-3)Gal(b1-4)[Fuc(a1-3)]GlcNAc(b1-2)Man
Method in brief: as §1

[30] = target: Neu5Ac(a2-3)Gal(b1-4)[Fuc(a1-3)]GlcNAc(b1-3)Gal
Method in brief: as §1

[31] = target: Neu5Ac(a2-3)Gal(b1-4)[Fuc(a1-3)]GlcNAc(b1-3)Gal(b1-4)GlcNAc
Method in brief: as §1

[32] = target: Neu5Ac(a2-3)Gal(b1-4)[Fuc(a1-3)]GlcNAc(b1-3)Gal(b1-4)[Fuc(a1-3)]GlcNAc(b1-3)Gal(b1-4)[Fuc(a1-3)]GlcNAc
Method in brief: as §1

[33] = target: Neu5Ac(a2-3)Gal(b1-4)[Fuc(a1-3)]GlcNAc(b1-3)GalNAc
Method in brief: as §1

[34] = target: Neu5Ac(a2-3)Gal(b1-4)[Fuc(a1-3)]GlcNAc(b1-6)[Gal(b1-3)]GalNAc
Method in brief: as §1

[35] = target: Neu5Ac(a2-3)Gal(b1-4)[Fuc(a1-3)]GlcNAc(b1-6)[Neu5Ac(a2-3)Gal(b1-3)]GalNAc
Method in brief: as §1

[36] = target: Neu5Ac(a2-3)Gal(b1-4)[Fuc(a1-3)]GlcNAc6S
Method in brief: as §1

[37] = target: Neu5Ac(a2-3)Gal6S(b1-4)GlcNAc
Method in brief: as §1

[38] = target: Neu5Ac(a2-3)Gal6S(b1-4)[Fuc(a1-3)]GlcNAc
Method in brief: as §1

B1: ECL (Erythrina cristagalli), Q6YD91 (protein)
chain: VETISFSFSEFEPGNNDLTLQGAAIITQSGVLQLTKINQNGMPAWDSTGRTLYTKPVHIWDMTTGTVASFETRFSFSIEQPYTRPLPADGLVFFMGPTKSKPAQGYGYLGVFNNSKQDNSYQTLAVEFDTFSNPWDPPQVPHIGIDVNSIRSIKTQPFQLDNGQVANVVIKYDASSKILLAVLVYPSSGAIYTIAEIVDVKQVLPEWVDVGLSGATGAQRDAAETHDVYSWSFHASLPETND
glycan array binding signal (z-score) [1]: -0.112 | glycan array binding signal (z-score) [2]: -0.358 | glycan array binding signal (z-score) [3]: -0.193 | glycan array binding signal (z-score) [4]: -0.563 | glycan array binding signal (z-score) [5]: -0.216 | glycan array binding signal (z-score) [6]: -0.393 | glycan array binding signal (z-score) [7]: -0.381 | glycan array binding signal (z-score) [8]: -0.429 | glycan array binding signal (z-score) [9]: -0.481 | glycan array binding signal (z-score) [10]: -0.437 | glycan array binding signal (z-score) [11]: -0.422 | glycan array binding signal (z-score) [12]: -0.385 | glycan array binding signal (z-score) [13]: -0.392 | glycan array binding signal (z-score) [14]: -0.192 | glycan array binding signal (z-score) [15]: 1.81 | glycan array binding signal (z-score) [16]: -0.299 | glycan array binding signal (z-score) [17]: 0.889 | glycan array binding signal (z-score) [18]: -0.291 | glycan array binding signal (z-score) [19]: -0.038 | glycan array binding signal (z-score) [20]: 0.043 | glycan array binding signal (z-score) [21]: -0.328 | glycan array binding signal (z-score) [22]: -0.419 | glycan array binding signal (z-score) [23]: -0.262 | glycan array binding signal (z-score) [24]: -0.351 | glycan array binding signal (z-score) [25]: -0.32 | glycan array binding signal (z-score) [26]: -0.366 | glycan array binding signal (z-score) [27]: -0.222 | glycan array binding signal (z-score) [28]: -0.268 | glycan array binding signal (z-score) [29]: -0.332 | glycan array binding signal (z-score) [30]: -0.424 | glycan array binding signal (z-score) [31]: -0.043 | glycan array binding signal (z-score) [32]: -0.241 | glycan array binding signal (z-score) [33]: -0.17 | glycan array binding signal (z-score) [34]: 1.35 | glycan array binding signal (z-score) [35]: -0.092 | glycan array binding signal (z-score) [36]: -0.293 | glycan array binding signal (z-score) [37]: -0.336 | glycan array binding signal (z-score) [38]: -0.434
